This is an account of results in publication PMC3997423, “Identification and HLA-Tetramer-Validation of Human CD4^+ and CD8^+ T Cell Responses against HCMV Proteins IE1 and IE2” (PLoS ONE, 2014).

This test concerns the target T1, HLA-C*07:02 (Homo sapiens, UniProt P10321).
T1 construct: made in house
The test is described as follows: Peptide-HLA class I stability. Conditions: dissociation of ^125I β2m, scintillation proximity assay, 37°C, read 24 h. The class given is binding. Background: In a scintillation proximity assay essentially only radioactivity close to the scintillant gives light.

Regarding CRVLCCYVL [IE1_309–317], the “Stability (T½; h)” value turned out to be 12.6 h.
